The supplement of paper PMC11417369
± gives the standard deviation of the averaged measurements. The list shows a part of the results.

The sequences below were run on PfAP2-EXP AP2 domain (GST-tagged) (assay: gcPBM binding intensity (ln(normalized median fluorescence intensity)); higher = stronger DNA binding).
Outline: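 After 1 h on an Agilent 4 × 180k array of primer-extended double-stranded 36-bp intergenic genomic probes and negative controls, bound GST-tagged P. falciparum DNA-binding domains were detected with Alexa488 anti-GST antibody and scanned at 488 nm. The domains had been expressed in E. coli, and binding took place in 1× PBS with 1% milk, 0.2 mg/ml BSA, 0.5% salmon testes DNA and 0.03% Triton X-100. Binding intensity is the highest Masliner-normalised natural-log median intensity across replicate spots of either probe orientation.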

Sequence | gcPBM binding intensity (ln)
TATGAAATTATAATTACACACAGGAAAATAAAATGT [CACACA_site1517] | 9.01 ± 0.47
ATATAATAATAAGGCACACAAATTAAAATATAAAAA [CACACA_site3710] | 8.79 ± 0.35
AAATAATTTGTTGACACACACACACCCATACAGATA [CACACA_site5291] | 8.93 ± 0.43
AAGGATCACAGACAAACACACATATATATATATATA [CACACA_site4469] | 10.2 ± 0.37
CATTATGTCGTAAATACACACATACATATACATACA [CACACA_site8383] | 8.62 ± 0.51
TTTTGACCATATCTGTTGCACTTTTGTGCTATTCGA | 8.73 ± 0.28
ATTAATTCGTTTTGTACACACATAATGAGTAATTTA [CACACA_site7118] | 8.47 ± 0.25
TAAATTTTTTCCTCCTGTACTTATTATATTTTTTTG [XGTACX_site1572] | 8.76 ± 0.33
TTTTTTTTTTTTTTTTGTACTCATATCTACTATCAT [XGTACX_site274] | 8.32 ± 0.47
ACAAGGTTTACGGGTAGTACAAATTTTTGAACATCT [XGTACX_site4739] | 8.55 ± 0.3
ATAAAAATTGATTATACACACGCGCCCAGACAACAA [CACACA_site5870] | 9.01 ± 0.45
ATATAGATGCATAATACACACATCAGATAATTAACC [CACACA_site6871] | 8.64 ± 0.33
ATTAAAAGTTTATACAAATAAAAAACAAAACAAAAA [CACACA_negctrl_site1030] | 8.62 ± 0.45
AGCCAAACCTTAAATTTAGCAATAAGTTTACAGGTC [CACACA_negctrl_site360] | 8.18 ± 0.36
GTAAAATGATATAAATGTACATAATATATATATGTC [XGTACX_site4049] | 8.58 ± 0.41
TGTGTATTTATAAATACACACCAAATGTTAATATAT [CACACA_site6904] | 8.56 ± 0.43
TGTCATATTATAAATTGTACAAATAGTATAATTATT [XGTACX_site581] | 8.44 ± 0.37
AGTATACATATATATACACACATATATATATATATA [CACACA_site300] | 10.2 ± 0.34
ATAAAAATATTATAAGCACACATATATATATATATA [CACACA_site8781] | 10.2 ± 0.34
ATTTTATCTTTAAACTGTACGTATTAATATGTAGAA [XGTACX_site3077] | 8.47 ± 0.38
TTATGCCTTTAATATACACACTAATATTTTTTTGGC [CACACA_site5171] | 8.38 ± 0.38
AACTATAAAAATTTTACACACTGTTTTTAAATAATG [CACACA_site5928] | 8.52 ± 0.45
TATATGAAGTACACAATACACACTAATTATATATAA [CACACA_site2608] | 8.59 ± 0.41

Sequence | gcPBM binding intensity (ln)
AATTTTTTTTTTAGACGTACAAGAAAAAACAAAAAA [XGTACX_site4990] | 8.82 ± 0.41
AAATAAAAAACAGTGGCACACATTATGTATCCACCT [CACACA_site3756] | 8.3 ± 0.26
AAAAAAAAAATATACACACACATATAAATATAAATA [CACACA_site7574] | 8.54 ± 0.51
TTAAAGTAGAGAAAATGTACATTTTATTAACACAAT [XGTACX_site6369] | 8.72 ± 0.38
TACAGATACAGATACACACACACACCGAAATAAATA [CACACA_site4865] | 8.74 ± 0.53
CTTTAAGTTATATGAAGTACAATTTAAAAAAATGAA [XGTACX_site358] | 8.41 ± 0.38
TAAATTCCTACATACGCATGTACATTAAAATTTTAA [TGCATGCA_site215] | 8.79 ± 0.51
AAAATAAAAAGAAAAAGAAAAAAGGGGGGGTAGGGG [CACACA_negctrl_site1048] | 9.395 ± 0.092
ATACATTCAATGAAATGTACGTTTATTTACAGAAGA [XGTACX_site2999] | 8.53 ± 0.39
TAATGGTTATCACTAACATGCAGTAATATTATATAG [TGCATGCA_site176] | 8.68 ± 0.32
AAAAGAAAAAAAAAAAAAAAAAAAATTAAAATATAA [CACACA_negctrl_site17] | 7.92 ± 0.52
ATATATATATGTATATGTACATATATATGGTAACTC [XGTACX_site681] | 9.6 ± 0.11
TTTTTTCTTTTTTTTTGTACATATAATATTTATGTT [XGTACX_site302] | 8.62 ± 0.4
TAAAATATTATTTATTTACACACCAATCTTCTTTTC [CACACA_site9320] | 8.34 ± 0.42
ATATAATATTTATATGCACACTTTTCTATATATAAG [CACACA_site6100] | 8.54 ± 0.26
TCGTATTTAAAATGTAGTACATAATTTGAAAAATAA [XGTACX_site5832] | 8.42 ± 0.13
TACTATTATAAATATGTGCACTTCAATAATATACTA | 8.61 ± 0.24
CTTAGGTTAAAAGTGTGTACATAAAAACATATATAA [XGTACX_site2213] | 8.72 ± 0.45
TAAATAAATTATTTTCGTACTTATTTATTTTAATTA [XGTACX_site283] | 8.65 ± 0.4
ATAAGAAAAAGACACACACACAAAAAAAAAAAAAAA [CACACA_site2828] | 8.24 ± 0.57
AAAAAAAAAAAACACACACACAAATACAAATGGTAA [CACACA_site1720] | 8.71 ± 0.54
TTCAATAGGTATAATTGTACTTAATAATATATTGTT [XGTACX_site8363] | 8.41 ± 0.46
